Experimental data from paper PMC4336329 (PLoS ONE, 2015).
Among all 310,000 compounds or so, about 14,000 (4.5%) showed an effect of 50% or more. Effects have a minus sign here. Some of the results follow.

Each molecule was assayed against human ether-à-go-go-related gene (hERG) potassium channel (human, UniProt Q12809) (assay: primary screen, population patch clamp on CHO cells stably expressing hERG).
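Note: peak tail current of the secondary pulse compared with the same well before compound.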

human ether-à-go-go-related gene (hERG) potassium channel, sequence (Q12809 whole entry, looked up): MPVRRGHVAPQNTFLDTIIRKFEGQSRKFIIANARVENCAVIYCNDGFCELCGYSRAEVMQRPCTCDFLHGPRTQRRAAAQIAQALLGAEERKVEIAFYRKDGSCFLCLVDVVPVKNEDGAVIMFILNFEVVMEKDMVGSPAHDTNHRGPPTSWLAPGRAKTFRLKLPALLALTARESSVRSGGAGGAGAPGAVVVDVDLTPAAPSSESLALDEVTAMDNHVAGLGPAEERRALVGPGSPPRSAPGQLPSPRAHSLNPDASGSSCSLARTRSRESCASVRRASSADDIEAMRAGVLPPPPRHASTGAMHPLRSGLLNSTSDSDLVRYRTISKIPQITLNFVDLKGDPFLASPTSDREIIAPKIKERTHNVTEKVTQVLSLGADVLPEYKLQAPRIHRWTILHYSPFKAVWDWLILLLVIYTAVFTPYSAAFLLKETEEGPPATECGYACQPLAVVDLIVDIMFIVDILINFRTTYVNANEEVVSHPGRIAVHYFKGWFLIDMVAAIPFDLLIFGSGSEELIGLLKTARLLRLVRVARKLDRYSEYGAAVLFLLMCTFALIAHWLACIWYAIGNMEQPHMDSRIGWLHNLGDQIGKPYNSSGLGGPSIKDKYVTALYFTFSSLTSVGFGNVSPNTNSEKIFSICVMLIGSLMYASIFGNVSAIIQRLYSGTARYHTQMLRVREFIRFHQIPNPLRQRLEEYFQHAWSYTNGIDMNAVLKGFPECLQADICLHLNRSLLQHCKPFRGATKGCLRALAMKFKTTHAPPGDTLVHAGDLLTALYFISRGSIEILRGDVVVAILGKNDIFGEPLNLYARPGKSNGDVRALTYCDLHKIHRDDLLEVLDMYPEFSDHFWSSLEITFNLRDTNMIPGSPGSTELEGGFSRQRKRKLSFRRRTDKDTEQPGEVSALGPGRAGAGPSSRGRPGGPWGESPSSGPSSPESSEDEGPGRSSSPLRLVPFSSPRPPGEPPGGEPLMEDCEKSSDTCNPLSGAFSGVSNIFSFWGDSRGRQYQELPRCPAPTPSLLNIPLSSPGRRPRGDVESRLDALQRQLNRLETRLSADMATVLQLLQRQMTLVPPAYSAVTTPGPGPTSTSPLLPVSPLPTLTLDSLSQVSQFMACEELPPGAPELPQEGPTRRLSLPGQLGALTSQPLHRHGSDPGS

SMILES | hERG current change (%, negative = inhibition) at 10uM [%]
Cc1cc(C)n2cc(CSc3ccc(Br)cc3)nc2n1 | -63.8
COc1ccccc1CC(NC(C)=O)C(=O)NC1CCN(C(=O)c2cccc(Cl)c2)CC1 (stereo not drawn) | 15.5
O=C(N/N=C/c1ccc(O)cc1)c1csc2ccccc12 | -26.5
Cc1cc(C)cc(OCC(=O)OCC(=O)NC2CCCCCCC2)c1 | -10
COc1ccc(CNC(=O)c2c[nH]c3c(OC)cc(OC)cc3c2=O)cc1 | 13.3
Fc1cc2ncn(Cc3ccccc3)c2cc1F | -3.73
COc1ccc(N2CC(C(=O)Nc3nnc(SCC(=O)N4CCOCC4)s3)CC2=O)cc1 (stereo not drawn) | 13.3
CCCOP(=O)(OCCC)C1(Nc2ccc(C)cc2)CCCCC1 | -5.07
COc1ccc(S(=O)(=O)N(CC(=O)NN=C2CCN(C)CC2)c2ccc(C)cc2)cc1OC | 10.1
Cc1ccc(OCC(O)Cn2c(=N)n(CCN3CCCCC3)c3ccccc32)cc1.Cl (stereo not drawn) | -72.9
O=C(COc1ccc(S(=O)(=O)N2CCCC2)cc1)NCC1CCCO1 (stereo not drawn) | 16.7
O=C1CC(NNc2ccccc2)C(=O)N1c1cccc(Cl)c1 (stereo not drawn) | 17.8
CCOC(=O)C(C(=O)OCC)C(C[N+](=O)[O-])c1ccccc1 (stereo not drawn) | 27.1
Cc1ccc2c(c1)sc(=NC(=O)C1CC1)n2C | -4.01
CCCCn1c(SCc2nc3ccccc3s2)nc2ccccc2c1=O | -54.7
CCCC(C)C(=O)Nc1nc(C)c(-c2csc(Nc3ccccc3OC)n2)s1 (stereo not drawn) | 14.5
Cc1cc(NC(=O)CCSc2ccccc2)no1 | 14.1
COn1c(SC(C)C)nc2ccccc2c1=O | -6.14
O=C(NC1CC(=O)N(c2cccc(F)c2)C1)N1CCN(C(=O)c2ccco2)CC1 (stereo not drawn) | -26.1

SMILES | hERG current change (%, negative = inhibition) at 10uM [%]
Cc1ccc(S(=O)(=O)N/N=C/c2cc(Br)c(C)o2)cc1 | 4.02
Cc1ccc(CNS(=O)(=O)c2cc3c4c(c2)C(C)C(=O)N4CCC3)cc1 (stereo not drawn) | -20.3
CCCCCCCCCC(=O)N/N=C(\C)c1cccnc1 | 9.29
CN(C(=S)NC(=O)C1CC1)c1ccc(O)cc1 | -16.5
O=C(NCCN1CCOCC1)c1c(F)c(F)c(F)c(F)c1F | 15.8
COc1ccccc1CNC(=O)C1CCCC1 | 21.6
c1ccc(CCNCCCOc2cccc3ccccc23)cc1 | -26.5
CS(=O)(=O)Nc1ccc(-c2cc(/C=C3\SC(N)=NC3=O)c[nH]c2=O)cc1 | 11.9
Cc1ccc(NC(=O)CCn2c(=O)[nH]c3ccsc3c2=O)cc1F | -1.38
CC1CCCC(C)N1C(=O)COC(=O)C12CC3CC(CC(Cl)(C3)C1)C2 (stereo not drawn) | -18.2
Cc1ccccc1C(=O)Nc1ccccc1Sc1ccccc1 | 3.32
Cc1nc(-c2ccc(C#N)cc2)cs1 | -0.948
Cc1c(C(=O)NCC2CCCO2)oc2ccc(S(=O)(=O)N3CCCCC3)cc12 (stereo not drawn) | 1.19
CCOc1ccc(OCCn2c(S(=O)(=O)O)nc3c(N)ncnc32)cc1 | 12.9
COc1ccc(NC(=O)c2ccc(N3CCOCC3)nc2)cc1 | 3.94
O=C(CN1C(=O)S/C(=C\C=C\c2ccccc2)C1=O)NC1CCS(=O)(=O)C1 (stereo not drawn) | -1.57
CC(Sc1ncnc2sc(-c3ccccc3)cc12)C(=O)NCC1CCCO1 (stereo not drawn) | -33.1
COc1ccc(N2CCN(C(=O)COC(=O)c3c(-c4ccccc4)noc3C)CC2)cc1 | -26.9
COC(=O)c1sc2nc(CN3CCN(c4cccc(C(F)(F)F)c4)CC3)[nH]c(=O)c2c1C | 11.6

SMILES | hERG current change (%, negative = inhibition) at 10uM [%]
CCOC(=O)c1c(/N=C/C2=C(O)CCCC2=O)sc2c1CCCC2 | 16
CCc1nc(C)cn1S(=O)(=O)c1cc([N+](=O)[O-])ccc1Cl | 16.4
CC1CCN(C(=S)c2ccc([N+](=O)[O-])cc2)CC1 | -18.1
O=C(NC(=S)N1CCN(c2ccccc2)CC1)c1c(F)cccc1F | 47
CN(CC(=O)Nc1ccc(N2CCOCC2)cc1)C(=O)CCc1cc(C(C)(C)C)c(O)c(C(C)(C)C)c1 | -31.1
Cc1cc(C)cc(C(=O)O/N=C(\N)c2ccc(Br)cc2)c1 | 4.49
O=C(CSc1nnc(-c2ccc(S(=O)(=O)N3CCCC3)cc2)o1)NCc1ccccc1 | 4.47
CS(=O)(=O)c1ccc(C(=O)Nc2ccc(N3CCOCC3)cc2)c(Cl)c1 | 4.97
CC(C)OCCCNc1ncnc2c1[nH]c1ccccc12 | -9.31
COc1ccc(CNC(=O)c2cccc(C)c2[N+](=O)[O-])cc1 | 26.4
O=C(C1CCCO1)N1CCN(C(=S)Nc2ccccc2C(F)(F)F)CC1 (stereo not drawn) | 1.49
O=C1CN(CC(=O)Nc2ccc(Cl)cc2)CCN1 | -4.87
Cn1ccnc1Sc1ccc(/C=N/NC(=O)c2ccccc2[N+](=O)[O-])cc1[N+](=O)[O-] | -36.7
CSCCC(NC(=O)c1ccccc1Cl)C(=O)N1CCN(C(c2ccccc2)c2ccccc2)CC1 (stereo not drawn) | -1.92
COc1ccc(CCNC(=O)CSc2ccc3nnc(CCNC(=O)c4ccccc4)n3n2)cc1OC | 6.1
O=[N+]([O-])c1cccc(-c2cc3cccc[n+]3cc2-c2cccc([N+](=O)[O-])c2)c1.[Cl-] | -24.8
COc1ccc(Cl)cc1C(=O)Nc1ccccc1N1CCN(C(=O)C(C)C)CC1 | -74
Cn1cnc2c1c(=O)n(Cc1cccc(Cl)c1)c(=O)n2C | 10.2
COc1ccc(S(=O)(=O)N2CCC(C(=O)Nc3cccc(Cl)c3)CC2)cc1OC | -18.9
